Laboratory results as given in patent publication EP4703382A1 (Kanglitai Biomedical (Qingdao) Co., Ltd., dated 2026).

Columns and labels:
[1] = biological target: T1, Cynomolgus PDL1-His protein (Cynomolgus, UniProt G7PSE7 19-238); assay: ELISA, Cynomolgus PDL1-His coated 100 ng/well, anti-human IgG HRP
T1 construct: also called PD-L1 (Cynomolgus) protein; Cynomolgus PDL1 protein

[2] = biological target: T2, recombinant protein PD-L1-His (human, UniProt Q9NZQ7 fragment); assay: SPR (Biacore), single concentration 1.5 µg/mL, PDL1-His captured on CM5 chip
T2 construct: also called PD-L1-his fusion protein; human PDL1-his protein

[3] = biological target: T2, recombinant protein PD-L1-His; assay: ELISA, human PDL1-his coated 200 ng/well
T2 sequence (Q9NZQ7 19-238 limits assumed): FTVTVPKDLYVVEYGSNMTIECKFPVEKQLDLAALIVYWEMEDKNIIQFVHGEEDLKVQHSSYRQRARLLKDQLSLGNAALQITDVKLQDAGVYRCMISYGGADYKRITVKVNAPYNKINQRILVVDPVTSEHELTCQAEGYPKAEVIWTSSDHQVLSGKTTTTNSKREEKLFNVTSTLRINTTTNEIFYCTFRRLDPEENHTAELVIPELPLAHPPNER

[4] = biological target: T3, human PD-L1 expressed on Raji cells (human, UniProt Q9NZQ7); assay: flow cytometry on Raji cells expressing human PD-L1
T3 construct: whole, on cells; also called Raji-PDL1; PDL1 protein expressed on Raji cells

T1 sequence (G7PSE7 entry or part of it limits assumed, form in doubt): as the sequence (Q9NZQ7 19-238 limits assumed) above, with A33T, A34S, S62N, R68Q, Q82R, F173L, T185A, T192I, H215L counted along it

B1: NbPDL1-1-Fc fusion protein (Fc fusion)
chain: QVQLQESGGGLVQPGGSLTLSCAASGFTVSNSAVSWARQAPGKGLEWVSLIDSNRNTVYAQSVRGRFTISRDNVKNTVYLQMNSLKPEDTAVYYCAKGIWGSTLTGQGTQVTVSS[skipping human IgG1 Fc]
notes: VHH gene cloned into pcDNA3.1(+) harboring human Fc, expressed in 293-F
Question: With B1 as the binder, how does the EC50 [1] read?
Answer: 0.0163 µg/mL

Question: And the “Binding value (60s)RU” value [2]?
Answer: 83.1 RU

Question: And the Dissociation percentage% [2]?
Answer: 10.1%

Question: What about the “Dissociation value (120s)RU” value [2] of the same binder?
Answer: -8.4 RU

Question: What about the “Parameter for evaluating binding activity” value [2] of the same binder?
Answer: 8.2

Question: What about the EC50 [3] of the same binder?
Answer: 0.0124 µg/mL

Question: What about the EC50 [4] of the same binder?
Answer: 0.204 µg/mL

B2: NbPDL1-3-Fc fusion protein (Fc fusion)
chain: QVQLQESGGGLVQPGGSLRLSCAGSGSIFRITPVAWYRQAPEKQRELVAVITDNGSTDYGDFVKGRFTISRDNAKNTVYLQMNSLKPEDTAVYYCNSRARPVRWTWGQGTQVTVSS[skipping human IgG1 Fc]
notes: VHH gene cloned into pcDNA3.1(+) harboring human Fc
Question: What does the source list for B2?
Answer: EC50 [1]: 0.00966 µg/mL; Binding value (60s)RU [2]: 106 RU; Dissociation percentage% [2]: 8.3%; Dissociation value (120s)RU [2]: -8.8 RU; Parameter for evaluating binding activity [2]: 12.7; EC50 [3]: 0.0111 µg/mL; EC50 [4]: 0.197 µg/mL

B3: NbPDL1-13-Fc fusion protein (Fc fusion)
chain: QVQLQESGGGLVQPGGSLRLSCAASGFTFSTSFVSWVRQAPGKGLEWVSRISPGGASTSYADSVKGRFTISRDNAENTLYLQMNSLKPEDTALYYCAREIYSGRFSGFDYWGQGTQVTVSS[skipping human IgG1 Fc]
notes: as for B2
Question: What does the source list for B3?
Answer: EC50 [1]: 5.1 µg/mL; Binding value (60s)RU [2]: 112 RU; Dissociation percentage% [2]: 46.1%; Dissociation value (120s)RU [2]: -51.8 RU; Parameter for evaluating binding activity [2]: 2.4; EC50 [3]: 0.0121 µg/mL

B4: Fc-containing KN035 (Fc fusion)
chain: QVQLVESGGGLVQPGGSLRLSCAASGKMSSRRCMAWFRQAPGKERERVAKLLTTSGSTYLADSVKGRFTISRDNSKNTVYLQMNSLRAEDTAVYYCAADSFEDPTCTLVTSSGAFQYWGQGTLVTVSS[skipping human IgG1 Fc with C220S D265A P331G (EU numbers)]
notes: positive control anti-PD-L1 single-domain antibody Fc fusion; also called KN035-Fc
Question: What does the source list for B4?
Answer: EC50 [3]: 0.0419 µg/mL; EC50 [4]: 0.139 µg/mL

B5: NbPDL1-14-Fc (Fc fusion)
chain: QVQLQESGGGLVQPGGSLRLSCAASGIISDINMVAWYRQAPGKQRELVAKIFRGGSTYYTDFVKGRFTISRENAKNTVYLQMNSLKPDDTAVYYCNARIQIRADRDYSDYWGQGTQVTVSS[skipping human IgG1 Fc]
Question: With B5 as the binder, how does the EC50 [1] read?
Answer: 31.9 µg/mL
